Results from PubChem BioAssay AID624417 (National Center for Advancing Translational Sciences (NCATS), 2012).
The whole screen tested about 410,000 compounds, of which about 6,400 (1.6%) were called active. The inconclusive results got no clear call from the source; some entries with a clear call stand among them for comparison. Calls come from the whole dose curve; as a rule, active = well fitted inhibition curve with a large enough effect; inconclusive = small, poorly fitted or top-dose-only effect; inactive = no such curve, though single readings can be large or run the other way. No potency is given beside an inconclusive call; the fits are too rough.

Target: Glucagon-like peptide 1 receptor (Homo sapiens) (UniProt P43220)
Test: qHTS of GLP-1 Receptor Inverse Agonists (Inhibition Mode); note: nearly all actives have a fitted effect of over 55% in size
Conditions: HEK293 GLP-1R CRE-luciferase, luminescence, 24 h, GLP-1R form is constitutively active; activity change, negative = inhibition: at 38.3 µM (top of the series) unless noted
Outline: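 qHTS in 1536-well format: reporter HEK293 cells expressing constitutive GLP-1R activity in DMEM + 10% Nu serum, 24 hr with compounds at 37 deg C, luminescence read after 12 min with detection reagent.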
% is set by controls: 0 for no effect and ±100 for the full control effect; potency is the fitted concentration of half-maximal effect; tags give direction and shape of the fitted curve.

UniProt P43220, sequence (P43220 whole entry, looked up): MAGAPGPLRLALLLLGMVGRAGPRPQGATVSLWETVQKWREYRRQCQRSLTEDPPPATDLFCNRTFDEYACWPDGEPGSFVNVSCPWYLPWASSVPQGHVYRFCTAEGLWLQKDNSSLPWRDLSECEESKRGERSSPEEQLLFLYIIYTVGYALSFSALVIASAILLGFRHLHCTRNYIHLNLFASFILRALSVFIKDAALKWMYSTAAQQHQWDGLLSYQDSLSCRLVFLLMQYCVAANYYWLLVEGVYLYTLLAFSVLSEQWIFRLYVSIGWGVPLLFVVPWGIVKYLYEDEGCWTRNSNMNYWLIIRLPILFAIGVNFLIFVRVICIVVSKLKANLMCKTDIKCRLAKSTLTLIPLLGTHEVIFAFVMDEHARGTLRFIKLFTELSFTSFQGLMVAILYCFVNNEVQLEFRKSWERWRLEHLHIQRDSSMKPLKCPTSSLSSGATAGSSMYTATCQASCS

| SMILES | activity change, negative = inhibition | Potency |
| --- | --- | --- |
| CCOc1ccc(NC(=O)c2cc(S(=O)(=O)N3CCc4ccccc43)ccc2F)cc1 | inactive: -19.7% |  |
| Cc1nn(-c2ccccc2)c(N2CCCC2)c1/C=N/O |  | inconclusive [inhibitor, single point] |
| COc1ccccc1Nc1n[nH]c(=S)s1 | inactive: 18% |  |
| O=C(NCCCN1CCOCC1)c1ccccc1N1C(=O)[C@@H]2Cc3c([nH]c4ccccc34)C(c3ccc(F)cc3)N2C1=O (some centres not stated) |  | inconclusive [inhibitor, single point] |
| CCCCOc1ccc(CSCCNC(=S)Nc2ccccc2)cc1 |  | active: 1.78 µM |
| Cc1ccc(SCC(=O)NC(=O)NC2CCCC2)c(C)c1 | inactive: -88.9% |  |
| CC(C)c1ccc(NC(=O)c2cc(S(=O)(=O)N(C)C3CCCCC3)ccc2F)cc1 |  | active: 10 µM |
| CSc1nc2ccccc2cc1/C=C(\C#N)c1ccc(Cl)c(Cl)c1 |  | inconclusive [inhibitor, single point] |
| CC(=O)NC(c1cccc(F)c1)c1nc(-c2cccc(F)c2)cs1 (configuration not stated) |  | inconclusive [inhibitor, single point] |
| O=C(Nc1ccc2c(c1)OCCO2)c1ccc2nccnc2c1 |  | inconclusive [inhibitor, single point] |
| O=C(Nc1ccc(Br)cc1F)c1ccc2c(c1)N(Cc1ccccc1)C(=O)CS2=O (configuration not stated) |  | inconclusive [inhibitor, single point] |
| N/C(=N\OC(=O)N1c2ccccc2Sc2ccccc21)c1ccccc1 |  | inconclusive [inhibitor, partial curve] |
| Cc1sc2nc(SCCO)n(-c3ccccc3)c(=O)c2c1C |  | inconclusive [inhibitor, full curve, poor fit] |
| Cc1ccc(NC(=O)CN(C)C(C)C(=O)Nc2ccc(S(=O)(=O)N3CCCC3)cc2)cc1 (configuration not stated) |  | inconclusive [inhibitor, partial curve, poor fit] |
| CCC(=O)N1c2ccccc2CC1C(=O)NCc1cc(OC)ccc1OC (configuration not stated) | inactive: 5.32% |  |
| O=C(CCn1c(=O)c2cccn2c2cccnc21)Nc1ccccc1C(F)(F)F | inactive: 4.21% |  |
| COc1ccc(C(CNS(=O)(=O)c2ccc(C)cc2)N2CCN(C)CC2)cc1 (configuration not stated) |  | inconclusive [inhibitor, single point] |
| CCN(C(=O)Cn1c(=O)n(-c2ccccc2)c(=O)c2ccc(C(=O)NCc3ccc4c(c3)OCO4)cc21)c1cccc(C)c1 |  | inconclusive [inhibitor, single point] |
| COc1ccc(Oc2nc(-c3ccccn3)nc3ccccc23)cc1 |  | inconclusive [inhibitor, full curve, poor fit] |
| O=C1Nc2ccc([N+](=O)[O-])cc2OC1CCN1CCN(Cc2ccc3c(c2)OCO3)CC1 (configuration not stated) |  | inconclusive [inhibitor, single point] |
| CC(C)CCN(C(=O)c1csnn1)C(C(=O)NC1CCCC1)c1ccccc1 (configuration not stated) |  | inconclusive [inhibitor, single point] |

| SMILES | activity change, negative = inhibition | Potency |
| --- | --- | --- |
| CCC(C)[C@H](NC(=O)OC(C)(C)C)C(=O)N/N=C/C1=Cc2ccccc2OC1 (some centres not stated) |  | inconclusive [inhibitor, single point] |
| CC1CCCCC1NS(=O)(=O)c1ccc2c(c1)CC(=O)N2C (configuration not stated) | inactive: 10.3% |  |
| C#Cc1ccc(NC(=O)C2(C)CCN2C(=O)C/C=C/c2ccccc2)cc1 (configuration not stated) |  | inconclusive [inhibitor, single point] |
| COc1ccccc1N(C)S(=O)(=O)c1ccc(C(=O)NCc2ccc3c(c2)OCO3)cc1 |  | inconclusive [inhibitor, partial curve, poor fit] |
| CCCN1CNC(=S)N(c2ccccc2OC)C1 | inactive: 7.35% |  |
| Cc1ccc(S(=O)(=O)N2CCN(C(=O)c3ccco3)CC2)cc1C |  | inconclusive [inhibitor, single point] |
| CN1C(=O)/C(=C2\SC(N3CCCCCC3)=NC2=O)c2ccccc21 | inactive: 48.3% |  |
| COc1cccc(NC(=O)/C=C/c2ccco2)c1 | inactive: 12.3% |  |
| CN1CCN(S(=O)(=O)c2ccc(N(C)Cc3ccc(C(F)(F)F)cc3)c([N+](=O)[O-])c2)CC1 |  | inconclusive [inhibitor, partial curve, poor fit] |
| CS(=O)(=O)c1sc2nc(-c3cccs3)cc(-c3ccccc3)c2c1N |  | inconclusive [inhibitor, single point] |
| COc1ccc(C(NC(=O)C2CCN(CCCOc3ccccc3)CC2)c2ccccn2)cc1 (configuration not stated) |  | inconclusive [inhibitor, single point] |
| O=C(CSc1nc2ccccc2[nH]1)Nc1cc(C(F)(F)F)ccc1N1CCOCC1 |  | inconclusive [inhibitor, single point] |
| CC(C)C[C@@H](CN1CCCC1CN1C(=S)NC[C@@H]1Cc1ccc(O)cc1)N1C[C@H](Cc2ccccc2)N(CC2CCCCCC2)C1=S (some centres not stated) |  | inconclusive [inhibitor, single point] |
| O=C(NCCCn1ccnc1)c1cccc(S(=O)(=O)N2CCCCCC2)c1 |  | inconclusive [inhibitor, partial curve, poor fit] |
| CC(C)c1ccc(O)c(C(=O)c2cnn(-c3ccccc3)c2)c1 |  | inconclusive [inhibitor, single point] |
| O=C1SCCC1NS(=O)(=O)c1ccccc1[N+](=O)[O-] (configuration not stated) |  | inconclusive [inhibitor, partial curve, poor fit] |
| O=C(CCl)Nc1ccccc1C(=O)NCc1ccccc1 |  | inconclusive [inhibitor, single point] |
| CCCc1cnc(Nc2nc(C(N)Cc3ccc(C(F)(F)F)cc3)cs2)nc1 (configuration not stated) |  | inconclusive [inhibitor, single point] |
| CCc1ccc2nc(N3CCN(C)CC3)c(C#N)cc2c1 | inactive: -18.9% |  |
| COC(=O)[C@H]1C[C@@H]1[C@H](NC(=O)[C@H]1C[C@@H]1[C@H](NC(=O)OCc1ccccc1)c1ccccc1)c1ccccc1 |  | inconclusive [inhibitor, single point] |
| O=C(Nc1ccc2c(c1)C(=O)c1ccccc1-2)c1ccccc1 | inactive: 5.1% |  |
